Results published in PubChem BioAssay AID2676 (National Center for Advancing Translational Sciences (NCATS), 2010).
Screen size: about 370,000 compounds; about 1,100 (0.3%) were called active. Inconclusive results, whose numbers are uncertain, are shown with a selection of clear calls. Calls follow the shape of the dose curve; as a rule, active = well fitted activation curve with a large enough effect; inconclusive = small, poorly fitted or top-dose-only effect; inactive = flat fitted curve, though single readings scatter. Where the call is inconclusive, the potency comes from a doubtful curve fit.

The compounds below were run against Relaxin receptor 1 (Homo sapiens) (UniProt Q9HBX9) (assay: qHTS Assay for Agonists of the Relaxin Receptor RXFP1). Conditions: HEK293T-RXFP1 cAMP TR-FRET, 30 min; series mostly up to 57.5 µM; activation: at the top concentration.
Outline: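 HEK293T cells stably expressing RXFP1 were pretreated with the PDE4 inhibitor Ro 20174, exposed to compounds for 30 min at 37C, lysed, and cAMP was read by TR-FRET. Data normalized to buffer (basal) and 29 nM porcine relaxin (100%).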
% is scaled to controls: 0 for no effect and ±100 for the full control effect; potency is read from the fitted curve at half-maximal effect; tags tell the direction and shape of the fitted curve.
Also: nearly all actives have a fitted effect of over 60% in size.

UniProt Q9HBX9, sequence (Q9HBX9 whole entry, looked up): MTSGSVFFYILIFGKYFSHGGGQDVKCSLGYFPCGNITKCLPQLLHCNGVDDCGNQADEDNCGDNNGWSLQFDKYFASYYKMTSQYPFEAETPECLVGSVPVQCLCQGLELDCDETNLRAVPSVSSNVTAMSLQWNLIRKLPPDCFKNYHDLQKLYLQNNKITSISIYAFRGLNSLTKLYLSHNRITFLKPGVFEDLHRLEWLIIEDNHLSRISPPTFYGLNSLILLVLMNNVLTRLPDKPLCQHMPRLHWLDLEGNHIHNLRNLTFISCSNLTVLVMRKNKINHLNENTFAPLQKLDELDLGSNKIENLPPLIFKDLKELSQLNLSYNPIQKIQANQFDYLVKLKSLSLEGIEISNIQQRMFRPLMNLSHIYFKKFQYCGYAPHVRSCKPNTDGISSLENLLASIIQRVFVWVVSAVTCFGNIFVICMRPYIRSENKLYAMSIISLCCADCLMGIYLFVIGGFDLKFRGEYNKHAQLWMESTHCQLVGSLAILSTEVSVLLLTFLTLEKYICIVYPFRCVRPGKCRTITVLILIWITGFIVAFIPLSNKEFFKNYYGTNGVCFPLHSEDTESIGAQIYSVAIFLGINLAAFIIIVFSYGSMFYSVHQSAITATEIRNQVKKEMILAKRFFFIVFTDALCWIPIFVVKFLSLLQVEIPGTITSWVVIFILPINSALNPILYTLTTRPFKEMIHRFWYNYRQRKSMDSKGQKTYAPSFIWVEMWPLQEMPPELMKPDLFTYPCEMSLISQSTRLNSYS

activation, inactive:
Cc1ccc(-c2nnc(SCC(=O)O)n2N)cc1 1.41%, COc1ccc(C(C)(C)C)cc1NC(=O)c1ccc2ncsc2c1 1.75%, Cc1ccc(C(=O)ONc2ccc(N=O)cc2)cc1 1.04%, O=C(Nc1cccc(C(F)(F)F)c1)C1CCN(c2nnc(-n3cccc3)s2)CC1 0.317%, CCC(=O)Nc1ccc2c(c1)ncn2-c1ccc(C)cc1 1.63%, CCOc1ccc(N2C(=O)S/C(=C\c3ccc(O)c(OCC)c3)C2=O)cc1 0.945%, N#Cc1ccc(NC(=O)CN2CCN(c3ccccn3)CC2)cc1 -1.16%, CCOc1ccccc1CNC(=O)Cn1c(-c2ccccc2)cc(C(C)=O)c1C 2.72%, O=C(c1cnn2c(C(F)F)cc(-c3ccccc3)nc12)N1CCN(Cc2ccc3c(c2)OCO3)CC1 -1.26%, COC(=O)c1ccc(S(=O)(=O)NC(C)(C)C)n1C 3.22%, COc1cccc(NC(=O)Nc2ccc(C(C)(C)C)cc2)c1 1.62%, Cc1ccc(-c2ccc(/C=N/N=C3/NC(=O)C(CC(=O)O)S3)o2)c([N+](=O)[O-])c1 (stereo not drawn) 0.0246%, COc1cccc(C2C(C(=O)Nc3ccccc3OC)=C(C)Nc3nc4ccccc4n32)c1 (stereo not drawn) -2.8%, CC(c1ccccc1)C1CC(=O)N(c2ccc(C(=O)O)cc2)C1=O (stereo not drawn) -0.0326%, CCOC(=O)c1ccccc1NC(=O)n1ncc2cc(Cl)ccc21 -3.2%, c1ccc2c(c1)OCCOCCOc1ccccc1OCCOCCO2 -0.481%, Cc1ccc(C)c(S(=O)(=O)N2CCN(C(=O)Cn3[nH]c(=O)c4ccccc4c3=O)CC2)c1 1.4%, Cc1cc2cc(CN(Cc3ccc4c(c3)OCO4)Cc3nnnn3C3CCCC3)c(=O)[nH]c2cc1C 14.3%, Cc1ccccc1Cn1cc(CCC(=O)NC(C)c2ccccc2)c2ccccc21 (stereo not drawn) 2.79%, Cc1ccc(NC(=O)CSc2ncnc3ccccc23)cc1S(=O)(=O)N1CCCCC1 3.99%, COc1cccc(NC(=O)c2c(-c3ccc(C)cc3)nnc3ccccc23)c1 -0.508%, Cc1cccc(C)c1Nc1c(-c2ccccc2Cl)nc2cnccn12 12.1%, Oc1cccc(-c2nc3ccccc3s2)c1 2.56%, Cc1ccccc1C(=O)N1CCC(C(N)=O)CC1 1.37%

Potency, inconclusive:
CCOC(=O)N1CCN(S(=O)(=O)N2CCCC(C(=O)NCc3cc(OC)ccc3OC)C2)CC1 (stereo not drawn) 39.8 µM [activator, single point], CN(CC(=O)c1c(N)n(C)c(=O)n(C)c1=O)c1ccccc1 11.2 µM [activator, partial curve], CCC(=O)N1CCc2cc(Br)cc(S(=O)(=O)CCC(=O)Nc3cccc(CC)c3)c21 35.5 µM [activator, single point], Cc1nonc1NC(=O)CSc1nc(CCC2CCCC2)nc2ccccc12 22.4 µM [activator, partial curve], Cc1ccc2nc(/C(C#N)=C/c3cccc(Br)c3)[nH]c2c1 14.1 µM [activator, partial curve], O=C(Nc1ccc(Oc2ccccc2)cc1)C1CCN(c2ncccn2)CC1 35.5 µM [activator, single point], c1ccc(-n2ncc3c2ncn2nc(-c4ccco4)nc32)cc1 31.6 µM [activator, single point], Cc1ccn2c(=O)c(C(=O)NCCc3ccccc3)c(O)nc2c1 35.5 µM [activator, single point], Cn1c(=O)n(-c2ccc(Br)cc2F)c(=O)c2sc3ccccc3c21 31.6 µM [activator, single point], O=C(CCCN1C(=O)c2cccnc2C1=O)Nc1ccc(Br)cc1 28.2 µM [activator, partial curve], Cn1c(=O)c2c(-c3ccccc3)n3c4ccccc4nc(-c4ccccc4)c3c2n(C)c1=O 35.5 µM [activator, single point], CCC(Sc1nc(-c2ccccc2)c(C#N)c(=O)[nH]1)C(=O)Nc1nnc(C)s1 (stereo not drawn) 28.2 µM [activator, partial curve], O=C1C(=O)N(CCN2CCOCC2)C(c2ccccc2)/C1=C(\O)c1ccc2c(c1)OCCO2 (stereo not drawn) 25.1 µM [activator, partial curve], NS(=O)(=O)c1ccc(CCNC(=O)c2nc(SCc3ccccc3F)ncc2Cl)cc1 31.6 µM [activator, single point], CCCn1c(=N)c(C(=O)NC2CCCC2)cc2c(=O)n3cccc(C)c3nc21 25.1 µM [activator, partial curve], O=C(O)c1cn(-c2ccc(N3CCCC3)c(F)c2)c2c(F)c(F)c(F)cc2c1=O 39.8 µM [activator, single point], COc1cccc(/C=N/Nc2ncccc2[N+](=O)[O-])c1OC 28.2 µM [activator, partial curve], Cc1nc2c(c(=O)c3ccccc3n2C)c(=O)n1C1CCCCCC1 39.8 µM [activator, single point], C#CCOCCOCCOCCNc1nc(N2CCN(C(=O)CCCCCCCCCCNC(=O)[C@H](CO)n3cc(CCCSC)nn3)CC2)nc(N2CCN(C(=O)CCCCCCCCCCNC(=O)[C@@H]([C@H](C)O)n3cc(C)nn3)CC2)n1 11.2 µM [activator, partial curve], Cc1ccnc(NC(=O)c2ccc3c(c2)S(=O)(=O)c2ccccc2C3=O)c1 39.8 µM [activator, single point], CCOCCCn1cnc2c(c1=O)c1nc3ccccc3nc1n2-c1ccc(C)cc1 31.6 µM [activator, single point], COc1ccc(OC)c(CCNC(=O)CCCn2c(=O)c3cccn3c3ccc(F)cc32)c1 28.2 µM [activator, partial curve], Cc1ccc2c(=O)c(C(=O)c3cccc(Cl)c3)cn(CC(=O)NC3CCCCC3)c2n1 35.5 µM [activator, single point], COc1ccc(C(=O)Nc2nnc(Cc3ccccc3)s2)c(OC)c1 39.8 µM [activator, single point], CCCCNC(=O)CCn1c(=S)[nH]c2cc3c(cc2c1=O)OCO3 39.8 µM [activator, single point], O=C(C1=C(O)C(=O)N(CCCn2ccnc2)C1c1cccc(Br)c1)c1ccco1 (stereo not drawn) 39.8 µM [activator, single point], Cc1c(C(=O)NCCN(C)C)oc2c1-c1nn(Cc3cccc(Cl)c3)cc1CC2 10 µM [activator, partial curve], S=c1[nH]nc(-c2ccccn2)n1/N=C/c1ccc(-c2ccccc2Br)o1 15.8 µM [activator, partial curve], Cc1cccc(N2C(=O)C(O)=C(C(=O)c3cccs3)C2c2cccc(Oc3ccccc3)c2)n1 (stereo not drawn) 25.1 µM [activator, partial curve], CCOc1cccc(C2/C(=C(/O)c3ccc4c(c3)CC(C)O4)C(=O)C(=O)N2CCCn2ccnc2)c1 (stereo not drawn) 28.2 µM [activator, partial curve], O=C(NCc1ccccc1)C1CCCN(c2nc3ccsc3c(=O)s2)C1 (stereo not drawn) 39.8 µM [activator, single point], CCC(OC(=O)c1nsc(Cl)c1Cl)C(=O)NCCOC (stereo not drawn) 25.1 µM [activator, partial curve], O=C(Nc1sc2c(c1C(=O)Nc1ccccc1Cl)CCCC2)c1ccccc1F 39.8 µM [activator, single point], Cc1cc(C)nc(/N=C(\N)Nc2ccc(S(=O)(=O)Nc3nccc(C)n3)cc2)n1 28.2 µM [activator, partial curve], CCc1nc(SCC(=O)Nc2c(C)nn(C)c2C)c2cnn(-c3ccccc3)c2n1 35.5 µM [activator, single point], O=C(C1=C(O)C(=O)N(CCc2ccccc2)C1c1cccs1)c1ccco1 (stereo not drawn) 15.8 µM [activator, partial curve], Cc1ccc(C(=O)Nc2ccc3nc(SCC(=O)N4CCc5ccccc54)sc3c2)cc1 35.5 µM [activator, single point], Cc1csc2nc(COC(=O)CNC(=O)c3ccccc3)cc(=O)n12 15.8 µM [activator, partial curve], COC(=O)c1ccc(NC(=O)C(=O)NCCc2csc(-c3ccc(F)cc3)n2)cc1 5.01 µM [activator, single point], CCOc1ccc(C(=O)Nc2nnc(SCc3cc(=O)n4ccccc4n3)s2)cc1 39.8 µM [activator, single point], O=C(CN1C(=O)c2ccccc2Sc2ccc(C(=O)N3CCOCC3)cc21)Nc1ccc(Cl)cc1F 39.8 µM [activator, single point], Cc1cccc(NC(=O)c2sc3ncnc(N(C)C4CCCCC4)c3c2C)c1C 20 µM [activator, partial curve], CCN(CC)c1ccc2cc(-c3nc4sc5c(c4c(=O)[nH]3)CCC(C(C)(C)C)C5)c(=O)oc2c1 (stereo not drawn) 28.2 µM [activator, single point]

Potency, active:
CCCCn1c(=O)[nH]c(=O)c2c1nc(Cn1ncc(Cl)c(Cl)c1=O)n2CCC 25.1 µM
